In article PMC10726135:
This is one part of the list. At the low end of the ranking, values are background and their order means little. The protein was read in a cell extract, so binding may be indirect.

target: T1, HNF4alpha8 (COS-7 nuclear extract) (UniProt P41235-5); test: protein-binding microarray; conditions: COS-7 nuclear extract on double-stranded Agilent 4x180k PBM; binding buffer, salt, pH and temperature not given; high values mean tight binding; double strand, one strand shown; sequences stand for … in …GCCTAGGGAGATTAGAGTATCGGTCGA
T1 sequence: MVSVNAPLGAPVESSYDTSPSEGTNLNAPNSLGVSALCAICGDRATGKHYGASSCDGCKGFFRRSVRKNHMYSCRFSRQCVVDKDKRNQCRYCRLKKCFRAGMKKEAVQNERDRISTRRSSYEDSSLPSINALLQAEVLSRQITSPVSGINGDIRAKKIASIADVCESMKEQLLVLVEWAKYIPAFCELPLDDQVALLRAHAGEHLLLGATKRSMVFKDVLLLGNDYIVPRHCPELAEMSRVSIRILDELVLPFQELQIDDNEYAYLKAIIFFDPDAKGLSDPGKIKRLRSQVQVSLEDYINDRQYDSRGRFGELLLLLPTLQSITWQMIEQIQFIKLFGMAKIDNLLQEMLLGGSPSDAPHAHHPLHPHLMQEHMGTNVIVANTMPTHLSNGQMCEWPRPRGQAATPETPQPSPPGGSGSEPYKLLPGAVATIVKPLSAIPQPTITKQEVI

| Sequence | binding signal (log2 normalized intensity) |
| --- | --- |
| CCACTGCGACCTTTGCCCTCCCTAAATCCA | 7.84 |
| AGGCAATGACTCCAAAGTTCAAACTCTGAA | 2.84 |
| GAGGCCAGTTTGACCTTTGCATTCTTACCC | 7.03 |
| GTTAAGACCTACATTAAGACCACCTCTATG | -1.28 |
| CCCTCAGGGAATCCTGCATTATCAGGCAAG | -0.72 |
| GCAGGGAGGAGCGCATCGGGCGCCAGCGCC | -1.36 |
| CCAGACAGGGGGGCGCCTACGGACGGGTAA | -1.39 |
| TACCCCTGTGGTTGACCTTTAGTCTCTAGC | 7.47 |
| ATTTCACCCAGGTATGACAAGCATGCACTG | -1.29 |
| TCCTCACCCCACTTTGGTTCACCGCTCACT | 1.08 |
| GTGGCTATGGCTGGGATATCAGGTATTGCC | -0.907 |
| CCTGTGTGTACTGGGCAGATAACAGCGAAC | -0.211 |
| TCTGGTCAGACTGAGAGAGCAGGGCCCGAG | -1.31 |
| GGAAGGTTTCACCCTGAGGAATCCCATTCC | -0.915 |
| TGCCAACAGGTGCTCTTTATCAGCACCAAG | -1.32 |
| CTCTGGATGCAGGTCGCCGGGAAAACCCGG | -1.1 |
| CCAGGCGACTGGGCCAGGAGCAGGAGCAGA | -1.28 |
| CAAGAGGTTTTAGGCTATCAGACAGCCACA | -1.21 |
| GAGCAAAGCTGATAAAGAGGACAGAGCCTG | -1.04 |
| GGATCCGCAGCCAGGGCTGTTTTCTCCAGT | -1.29 |
| TTGCCATGTGACAATTCTTCCTTCATCTGG | 0.528 |
| GCCCAGAGGAAGGAATGCACATGCCTTAAG | -1.35 |
| GGCTTAAACCTTTAATGATGAGTCCAAGTT | 2.92 |
| TAGCATAATCAAAGAGAAAAACATTGCATA | -1.19 |
| AGAATCTAATCAGGCCTCCCTCCCTCCCCC | 5.62 |

| Sequence | binding signal (log2 normalized intensity) |
| --- | --- |
| AATGGATGGCAAATAAAGGAACTCTTATCT | -1.27 |
| GAATTGTCTAACCGCAGCAAGACACTTCCA | -1.47 |
| GCATCACTCTTGCCACAGAACAGGCTGTTT | -1.35 |
| CACAAGCTGGGTCAACATCAGCCCTCCTAG | 1.31 |
| TCATCTTCAAAGCCAGCAATGGCAGGTCCA | 1.81 |
| ATAGTCATTCTTCTACAGTGTTTACCGGAT | 1.9 |
| AGTGCTATCCCTGGAGCCTTAGAAGATGAC | -1.35 |
| TTCAGGGAGACTTCCAGGGAATAAAGAACT | -1.34 |
| GGGTCAAGAAGACCTGGGCTCAAATCTGGA | -1.22 |
| CCTATTCTGAAGATTGCTAGCTGAGAGACT | -1.35 |
| CATGAATCCATCCCACCTCACTTATCACAT | 0.977 |
| AATCCTCCACTCTCCAAAATAGGGTAGTTT | 0.954 |
| TATTAGGAAATTGTCAGTGCCCTATACAGA | 1.32 |
| AAGGGTCCAGATTAGAGCACAATGTGGGGA | 0.419 |
| AGAGGTATCATGAGGTATATTCAACCCCCA | 4.45 |
| GGGCTGGGGAAACAAAATAATAGTTGACCT | 4.83 |
| CATGTTTGGGTCACAATCACAAATGCCTTC | 0.351 |
| TCCCATGGCTAATCTGTGACTGAGCAGAGA | 0.339 |
| TTTAATGATGAGTCCAAGTTCCACATCAAG | 1.88 |
| AGCTGTCTGGTTTGACCTTAAGTCAGAAGA | 3.88 |
| TTCCTCAGATGGAATGTGTGCCCGTCACCT | 1.61 |
| CGTCCGCGGAAGCACACACGAGCTGTGCGC | -1.27 |
| TCTTTTTTCTGAAGACCTTCAACTGATTAG | 0.461 |
| AAATAGCTGGGTCTCACTCTGACCCCTCCC | 5.09 |
| GGTTGTCAGACTGGTGTAGTGGGGAGGGCA | 1.35 |

| Sequence | binding signal (log2 normalized intensity) |
| --- | --- |
| TTAGAGAACGGGTCAAGAGGGACAAAATGC | -1.36 |
| TGCATTCCATCAGTAGTATTACCTGCATCT | 0.719 |
| ATTCTCACCACTAGGAAACTGACCTTTGCT | 6.07 |
| TGAGCAGCTGGAGGGGGACTGGAAGGGAGA | -1.04 |
| ACTCCTGCCCCTGTGCAATACTTTCCCTGA | 1.06 |
| AGCAGATAAGAACACAAAAAGCCTGAGCAT | -1.33 |
| ATGAGCCCCCTAAAAAGAAAACTAGATAGT | 1.51 |
| CCCCACTGTTTTACTGGGGCCCATTGTATG | 0.682 |
| TGCTCCAGTAAAAGCTCTACCTGACCTCCC | 3.24 |
| CACATGGTGTCTTTTGTTGTTGTTAGCTGT | 1.92 |
| TTTGTTACTTACAGACTTTCAACATTATGA | 0.613 |
| AAGTGGACTTTAGAACCCAAATAGACTTAA | 4.6 |
| TCTCCTCTGAACCCTCTTCTCAACTAGGCC | 1.35 |
| GATGTCTGCTTCTTGGGTCAAAGTCTCTGG | 3.97 |
| ACCAGCGTAATTCTGGCTCTTTGAGTGGTT | 0.461 |
| GTAATGACATGCAGTATGGGGACTTTGGAC | 7.1 |
| AAGCTGGAAGGACAGCATTCCTGTCTGCGA | -1.36 |
| AACTAGGGCAGGGACTTTGCCCTTTTTAAT | 6.81 |
| AAGCTGTGTCAGGCATTGTACTCACTGTTA | 0.747 |
| GAGATAAGTCACCTTATCAAGTCCGAACTC | 1.35 |
| GGAGCCAGGGCCTTTTCAAGGGAGTCCTCC | -1.18 |
| CCGCGCGCAGGGCGGACAGCGCCGCCACCC | -1.37 |
| GGTCAAAGGTCAGTTTCTTTAAGACAAGTG | 5.86 |
| AATACCATCATCTCAGGGAGTGCAAACTTC | 0.837 |
| TATCACCCTCCCTATCAGCTACTCATGCTT | 0.974 |

| Sequence | binding signal (log2 normalized intensity) |
| --- | --- |
| TGCAGAGTGTCCCACTTCAGGCAGGAATGC | -1.31 |
| GTCCCCCACCTGGAATGTGCTCCCGACTGC | 3.65 |
| TCCTCACAGTGCAGCACAGCAGCTGACAGA | -1.25 |
| TCAGTTTCTGAGAGTGGCAAGCAGGAGCTG | -1.39 |
| GCCTAGCACAGTGCCTGGCATGTGATAGGC | -1.43 |
| TAAAATAACGACCTTTGGGCTAAAAAGGAA | 3.55 |
| CCCTCTGGTGCTGATGTGTTCGCCCCTAGG | 1.8 |
| GATAGGGAGGGGTAAGGGTGGGGGTGGGGA | -1.35 |
| CTGAATGGAATGAAGATACTGGATAACCTT | 1.09 |
| TCTTGACCAGGCAAGCTTGACCTTTGATCC | 10 |
| GGTCAGCAATCTCAAAGACTGGAGGTAGAT | -0.761 |
| CACAGCTCTAGAGGGCTGCTTATCTAGGAT | -1.02 |
| TTTTCTTTTTAATCCTGGATTCCTCCAGCC | -1.24 |
| ACAGTGCAGCACAGCAGCTGACAGATGGTG | -1.34 |
| AATGGGCCTAGGTATTGAGGGAGCAAAGGG | -1.01 |
| GAAGATTCTTTGGTTGGGAATAACATTGTG | 1.42 |
| ACGTAAACAAGTAAGGAAGACAAGACAAGG | -1.23 |
| CCATTACCACATTCTCACCACTAGGAAACT | -1.36 |
| TAGCACTGACCAGCTCCAAAGTCCGCCACT | 3.2 |
| CCCACCTCCACTCTCATAAAAGAGGCCAAT | 1.97 |
| GCTAGAGCGCGCTGGAATCTTGATAATGCC | -1.43 |
| GCTTCCAATCCTGGAGAAGGAGCACCAATG | -1.17 |
| GTAAACTAGTGATGTGGAAATCTGGACTCA | 3.49 |
| TGTATCTATCTCTATGTCCACAGAAAGGCA | 0.639 |
| CCTCTGCCTAGGAAAACCAGAGACCTTTGT | 3.68 |

| Sequence | binding signal (log2 normalized intensity) |
| --- | --- |
| CTGGAATTTCAAAGGGAGCATATGTATGTC | 1.15 |
| GGAGAACAAACCTTATCTCTCAAGGTTCCC | -1.02 |
| CAGATTAGAAGGCAGAGAAAGATAGGAGAT | -1.19 |
| TTCTTTCGGTCACCCACACAAAAATGTGCC | -1.22 |
| ACTCTGTTTGTAAAGTCTACAAGTGGATAT | 1.12 |
| CAAACAAAAAACCCTAGAGATGTACACAGT | -1.11 |
| TATACCTGTACACTTACAAGTGTACAAAGG | 2.96 |
| TAGGCCTTTCCTGGGCCTTAAAGCATGACA | -1.15 |
| CAAATTTGGGAGGGAAGAGGCAAGGAAAGA | -1.31 |
| TCATGAGTAGGTTTACTAAAGGAAGGGAGG | -1.18 |
| TGGAGATAACACACAGGCTCAACGGGTTAG | -1.27 |
| CATTGGAGGTCACCCTGTGTCAGCGACTGG | -1.22 |
| ATGTGTGCTTTCAGGTGTGAACCCAGGCAA | 2.46 |
| CACCAGAAAAATGTACATGTGCAAAAGCAC | -1.12 |
| TTAAGAACTGGAGTAAAGGTCACTCTTGCT | 3.94 |
| GCTGTGTACTTTGAACTGAAGGATATTGGC | 4.44 |
| ATGGAATTTAATTAGCTTCTGTTCAGGAGT | -0.251 |
| CACTGATAACATGAGGATACTGATAACATG | -0.35 |
| GCTAATGAGATAATGCTGGTAAAGCACTTT | 0.678 |
| CAGTGATCTTATCGCCTAGTACTCCTGCCC | 0.833 |
| CTCAGAGTCTGTGGAGACACTGCCAGTGTC | -1.3 |
| GCATGACCTCAACTCTCAGTTTGGCTCTTA | 0.116 |
| TCTAGATAAGTTTATTTACTTATGTTGTCC | 1.85 |
| GGGGAGGTGGGAAAAGAAATGTAGTGACAG | -0.392 |
| AAAGGTCACTTCTGTTCATTGATAAAGGGT | 3.11 |

| Sequence | binding signal (log2 normalized intensity) |
| --- | --- |
| GGGCGCCTCCCGGAGGACCCGACCGGAGAG | -1.23 |
| GGACTAGTAGAGTGGGGAGGTAGGGCAAGA | -1.41 |
| CCCAGGGAGAGCTGGACTTTCATCTGAGTC | 4.04 |
| GAAACATTTTACTCACCCCTTGCTGAGTGG | 1.49 |
| ACACTGATACAGCATGGCCCAGGGACTCAG | -1.32 |
| GGTGAAAGATAAGGGCTAGTTCATTAAACA | -1.36 |
| TCAAAAGCTGTGTGCTCCTGTAGAATGACC | 2.7 |
| TAGTGTGTCAGGGAAGGCTAGCATTCCTGC | -1.33 |
| CAGTCAGACACGCCTTGCACAAATTTCAGA | -1.22 |
| ACTTTATATTCCTTTGTATCTGTACCTTAA | 2.81 |
| AAGGTCGTGTGCTTATCACATCTATCTGCC | 0.746 |
| TCATTGAGCCCTCCCCTTGTCTGATAAGAT | 2.69 |
| GGCCTTTACCCCTTGAGTTTGAACTTTGAC | 7.11 |
| GGCCTCTCAGGTCAGGGAAGACTGATAAGA | -1.35 |
| TCAGCCTGGCTGTGTAGACATCACCTGCTC | -0.923 |
| TTTACTTAACCTTTGATCATATGCATTTCC | 4.77 |
| TCATTTTTTTGATTACCTTAGGGGGAAACA | 0.347 |
| CTGATATAGAACACTTGTACATACTTTTGG | 0.97 |
| TAGGCATTGTCTTGAAAGATAAAGTGTCTC | 1.48 |
| GTCTGAATTCTAGTCCTATCACTGTCTAGC | -1.28 |
